Consider one molecule from patent publication US6743604.

Assay [1] deals with T1, human IL13Rα1 co-expressed with human IL4Rα on transiently co-transfected COS7 cells (heterologous IL4/IL13R … (human, UniProt P24394 26-825)).
T1 construct: whole, on cells; Both cDNAs were co-transfected in COS7 cells; also called IL13Rα1 + IL4Rα1
T1 sequence 1: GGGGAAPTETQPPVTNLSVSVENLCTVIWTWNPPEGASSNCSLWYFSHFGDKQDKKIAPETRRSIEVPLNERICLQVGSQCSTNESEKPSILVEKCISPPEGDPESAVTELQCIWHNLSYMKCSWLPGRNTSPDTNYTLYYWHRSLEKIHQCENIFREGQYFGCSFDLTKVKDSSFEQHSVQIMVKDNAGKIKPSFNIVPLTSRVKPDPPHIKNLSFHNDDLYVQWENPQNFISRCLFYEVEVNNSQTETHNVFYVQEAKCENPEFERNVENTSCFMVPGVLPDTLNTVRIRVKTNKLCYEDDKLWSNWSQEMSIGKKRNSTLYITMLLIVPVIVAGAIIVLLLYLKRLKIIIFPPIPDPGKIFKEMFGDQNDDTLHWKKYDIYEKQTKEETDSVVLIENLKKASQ
T1 sequence 2: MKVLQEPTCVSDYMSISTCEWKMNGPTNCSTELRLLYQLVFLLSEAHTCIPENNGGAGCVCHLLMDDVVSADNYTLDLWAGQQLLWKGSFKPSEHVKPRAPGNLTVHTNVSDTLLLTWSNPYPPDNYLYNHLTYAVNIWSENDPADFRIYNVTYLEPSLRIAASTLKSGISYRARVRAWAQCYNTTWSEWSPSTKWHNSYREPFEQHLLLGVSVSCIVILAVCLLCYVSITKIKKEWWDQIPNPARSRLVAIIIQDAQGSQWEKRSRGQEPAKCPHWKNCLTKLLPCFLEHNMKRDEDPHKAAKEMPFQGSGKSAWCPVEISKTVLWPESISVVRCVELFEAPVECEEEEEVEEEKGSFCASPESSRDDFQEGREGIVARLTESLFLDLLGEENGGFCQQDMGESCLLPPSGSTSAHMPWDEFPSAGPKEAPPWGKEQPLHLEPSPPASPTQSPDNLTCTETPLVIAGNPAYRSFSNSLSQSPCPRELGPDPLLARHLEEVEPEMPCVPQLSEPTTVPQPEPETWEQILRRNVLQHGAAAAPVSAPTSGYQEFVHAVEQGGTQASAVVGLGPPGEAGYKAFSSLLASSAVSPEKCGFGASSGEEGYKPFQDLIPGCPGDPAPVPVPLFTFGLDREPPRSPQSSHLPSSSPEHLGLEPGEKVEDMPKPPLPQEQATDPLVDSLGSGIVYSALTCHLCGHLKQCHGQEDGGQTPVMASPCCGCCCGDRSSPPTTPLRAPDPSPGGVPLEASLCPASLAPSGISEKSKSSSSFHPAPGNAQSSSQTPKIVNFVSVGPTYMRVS
The assay is described as follows: radioligand binding on COS7 cells co-transfected with IL13Rα1 and IL4Rα; low affinity sites.

In assay [2] the target is T1, human IL13Rα1 co-expressed with human …. Description: radioligand binding on COS7 cells co-transfected with IL13Rα1 and IL4Rα; high affinity sites.
Assay [3] has as its target T2, human IL-13 receptor α1 chain (cDNA clone 3.1) expressed on transiently transfected COS7 cells (human, UniProt P78552 22-427).
T2 construct: also called IL13Rα1; IL-13 R α1
T2 sequence: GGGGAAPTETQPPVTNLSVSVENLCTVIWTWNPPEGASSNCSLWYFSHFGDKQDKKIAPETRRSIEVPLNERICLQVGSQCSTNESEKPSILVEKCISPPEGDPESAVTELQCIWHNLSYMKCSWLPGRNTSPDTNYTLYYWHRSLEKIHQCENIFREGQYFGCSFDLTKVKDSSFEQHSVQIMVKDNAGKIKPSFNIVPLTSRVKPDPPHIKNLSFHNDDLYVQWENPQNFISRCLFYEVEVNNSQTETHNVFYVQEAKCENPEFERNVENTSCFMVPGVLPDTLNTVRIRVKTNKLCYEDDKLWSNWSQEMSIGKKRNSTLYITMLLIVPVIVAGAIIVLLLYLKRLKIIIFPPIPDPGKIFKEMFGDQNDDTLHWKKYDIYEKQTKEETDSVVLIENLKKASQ
Description: radioligand binding (displacement of iodinated ligand by cold ligand) on COS7 cells transfected with IL13Rα1.

B1: human IL-13 (ligand)
chain: not shown
As to B1, the values for the dissociation constant (Kd) in assay [1], in assay [2] and in assay [3] were 6.29 nM, 0.0459 nM and 1.43 nM, respectively.
